Structures can show the parent of a compound that is named as a salt. The list shows a part of the results. Many values rest on one well or one pass, so single values are uncertain.
The molecules below were run on OVCAR4 (assay: log2 surviving fraction (library drug vs vehicle, or drug + carboplatin vs carboplatin alone; relative to plate median); ovarian cancer lines: OVCAR4 is platinum-sensitive and Ov4Carbo platinum-resistant; higher = more cell survival). Details: library drug concentration 10 µM; 7 days; carboplatin co-treatment 5 µM.

Row | SMILES | log2 surviving fraction
1 | NC12CC3CC(CC(C3)C1)C2 [Amantadine hydrochloride (Symmetrel)] | 0.362
2 | CCC1(c2ccc(N)cc2)CCC(=O)NC1=O (stereo not given) [Aminoglutethimide (Cytadren)] | 0.763
3 | Clc1ccc(COC(Cn2ccnc2)c2ccc(Cl)cc2Cl)cc1 (stereo not given) [Econazole nitrate (Spectazole)] | -1.79
4 | CC1CNc2c(cccc2S(=O)(=O)N[C@@H](CCCNC(=N)N)C(=O)N2CC[C@@H](C)C[C@@H]2C(=O)O)C1 (stereo not given in full) [Argatroban] | 0.826
5 | Fc1ccc([C@@H]2CCNC[C@H]2COc2ccc3c(c2)OCO3)cc1 [Paroxetine HCl] | -5.67
6 | O=P(O)(O)C(O)(Cc1cccnc1)P(=O)(O)O [Risedronic acid (Actonel)] | -1.16
7 | C[C@](N)(Cc1ccc(O)c(O)c1)C(=O)O [Methyldopa (Aldomet)] | 0.634
8 | CN1CCN(c2cc3c(cc2F)c(=O)c(C(=O)O)cn3-c2ccc(F)cc2)CC1 [Difloxacin HCl] | 0.527
9 | C[C@H](CCC(=O)O)[C@H]1CC[C@H]2[C@@H]3[C@H](O)C[C@@H]4C[C@H](O)CC[C@]4(C)[C@H]3CC[C@]12C [Chenodeoxycholic acid] | 0.0766
10 | Cc1ccc2c(Cl)cc(Cl)c(O)c2n1 [Chlorquinaldol] | -6.21
11 | O=C1c2ccccc2C(=O)C1c1ccccc1 [Phenindione (Rectadione)] | 0.693
12 | CC(C)NC[C@@H](O)COc1ccc(CC(N)=O)cc1 [(R)-(+)-Atenolol] | 0.715
13 | CC(CCc1ccc(O)cc1)NCC(O)c1ccc(O)cc1 (stereo not given) [Ractopamine HCl] | -0.158
14 | COc1ccc([C@H]2CNC(=O)C2)cc1OC1CCCC1 [S-(+)-Rolipram] | -0.321
15 | O=C(O)c1cn(C2CC2)c2cc(N3CCNCC3)c(F)cc2c1=O [Ciprofloxacin (Cipro)] | -0.257
16 | NCCS(=O)(=O)O [Taurine] | 0.896
17 | CC(=O)Nc1cc([As](=O)(O)O)ccc1O [Acetarsone] | -0.425
18 | Nc1ccc(/N=N/c2ccccc2)c(N)n1 [Phenazopyridine HCl] | 1.23
19 | CCc1cc2c(cc1CC)CC(NC[C@H](O)c1ccc(O)c3[nH]c(=O)ccc13)C2 [Indacaterol Maleate] | -0.712
20 | COCCc1ccc(OCC(O)CNC(C)C)cc1 (stereo not given) [Metoprolol tartrate] | 0.518

Row | SMILES | log2 surviving fraction
21 | COc1cc2nc(N3CCN(C(=O)c4ccco4)CC3)nc(N)c2cc1OC [Prazosin HCl] | 0.103
22 | C[N+](C)(C)CCOC(N)=O [Carbachol] | 0.674
23 | C[C@H](N[C@@H](CCc1ccccc1)C(=O)O)C(=O)N1CCC[C@H]1C(=O)O [Enalaprilat dihydrate] | -0.0733
24 | CCOc1cc(CC(=O)N[C@@H](CC(C)C)c2ccccc2N2CCCCC2)ccc1C(=O)O [Repaglinide] | 0.668
25 | CCCCNc1ccc(C(=O)OCCN(C)C)cc1 [Tetracaine hydrochloride (Pontocaine)] | 0.234
26 | CC[C@H](C)[C@H](N)C1=N[C@H](C(=O)N[C@@H](CC(C)C)C(=O)N[C@H](CCC(=O)O)C(=O)N[C@H](C(=O)N[C@H]2CCCCNC(=O)[C@H](CC(N)=O)NC(=O)[C@@H](CC(=O)O)NC(=O)[C@H](Cc3cnc[nH]3)NC(=O)[C@@H](Cc3ccccc3)NC(=O)[C@H]([C@@H](C)CC)NC(=O)[C@@H](CCCN)NC2=O)[C@@H](C)CC)CS1 [Bacitracin] | 1.01
27 | CC(=O)O[C@@]12CO[C@@H]1C[C@@H](O)[C@@]1(C)C(=O)[C@H](O)C3=C(C)[C@@H](O)C[C@@](O)([C@@H](OC(=O)c4ccccc4)[C@H]21)C3(C)C [10-DAB (10-Deacetylbaccatin)] | -4.3
28 | O=c1[nH]c(=O)n([C@H]2C[C@H](O)[C@@H](CO)O2)cc1I [Idoxuridine] | -0.83
29 | CCOc1ccc2nc3cc(N)ccc3c(N)c2c1 [Ethacridine lactate monohydrate] | -6.99
30 | CC(C)NCC(O)c1ccc(O)c(O)c1 (stereo not given) [Isoprenaline hydrochloride] | 0.259
31 | Cl.N=C(N)NCCC[C@H](N)C(=O)O [L-Arginine HCl] | 0.993
32 | Cc1cccc(Nc2ccccc2C(=O)O)c1C [Mefenamic acid] | -0.437
33 | CCOc1cc(N)c(Cl)cc1C(=O)NCC1CN(Cc2ccc(F)cc2)CCO1 (stereo not given) [Mosapride citrate] | 1.15
34 | CC(=O)OCC(=O)[C@H]1CC[C@H]2[C@@H]3CCC4=CC(=O)CC[C@]4(C)[C@H]3CC[C@]12C [Deoxycorticosterone acetate] | 1.03
35 | CCOC(=O)c1ccc(N)cc1 [Benzocaine] | 0.627
36 | O=C(Nc1cccc2c(=O)cc(-c3nnn[nH]3)oc12)c1ccc(OCCCCc2ccccc2)cc1 [Pranlukast] | 0.943
37 | CCCCOc1ccc(OCCCN2CCOCC2)cc1 [Pramoxine HCl] | -0.737
38 | CCOC(=O)C(C)(C)Oc1ccc(Cl)cc1 [Clofibrate (Atromid-S)] | 0.157
39 | CN1Cc2c(N)cccc2C(c2ccccc2)C1 (stereo not given) [Nomifensine Maleate] | -8.72
40 | CC(C)(O)c1ccccc1CC[C@@H](SCC1(CC(=O)O)CC1)c1cccc(/C=C/c2ccc3ccc(Cl)cc3n2)c1 [Montelukast Sodium] | 0.486

— the supplement of paper PMC8047034
